Measurements reported in article PMC4336329 (PLoS ONE, 2015).
Hit rate of the full screen: of about 310,000 compounds, about 14,000 (4.5%) showed an effect of 50% or more. The effect is printed as a negative number. Some of the results follow.

The compounds below were run against human ether-à-go-go-related gene (hERG) potassium channel (human, UniProt Q12809) (assay: primary screen, population patch clamp on CHO cells stably expressing hERG).
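Further: peak tail current of the secondary pulse compared with the same well before compound.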

Sequence of human ether-à-go-go-related gene (hERG) potassium channel (Q12809 whole entry, looked up): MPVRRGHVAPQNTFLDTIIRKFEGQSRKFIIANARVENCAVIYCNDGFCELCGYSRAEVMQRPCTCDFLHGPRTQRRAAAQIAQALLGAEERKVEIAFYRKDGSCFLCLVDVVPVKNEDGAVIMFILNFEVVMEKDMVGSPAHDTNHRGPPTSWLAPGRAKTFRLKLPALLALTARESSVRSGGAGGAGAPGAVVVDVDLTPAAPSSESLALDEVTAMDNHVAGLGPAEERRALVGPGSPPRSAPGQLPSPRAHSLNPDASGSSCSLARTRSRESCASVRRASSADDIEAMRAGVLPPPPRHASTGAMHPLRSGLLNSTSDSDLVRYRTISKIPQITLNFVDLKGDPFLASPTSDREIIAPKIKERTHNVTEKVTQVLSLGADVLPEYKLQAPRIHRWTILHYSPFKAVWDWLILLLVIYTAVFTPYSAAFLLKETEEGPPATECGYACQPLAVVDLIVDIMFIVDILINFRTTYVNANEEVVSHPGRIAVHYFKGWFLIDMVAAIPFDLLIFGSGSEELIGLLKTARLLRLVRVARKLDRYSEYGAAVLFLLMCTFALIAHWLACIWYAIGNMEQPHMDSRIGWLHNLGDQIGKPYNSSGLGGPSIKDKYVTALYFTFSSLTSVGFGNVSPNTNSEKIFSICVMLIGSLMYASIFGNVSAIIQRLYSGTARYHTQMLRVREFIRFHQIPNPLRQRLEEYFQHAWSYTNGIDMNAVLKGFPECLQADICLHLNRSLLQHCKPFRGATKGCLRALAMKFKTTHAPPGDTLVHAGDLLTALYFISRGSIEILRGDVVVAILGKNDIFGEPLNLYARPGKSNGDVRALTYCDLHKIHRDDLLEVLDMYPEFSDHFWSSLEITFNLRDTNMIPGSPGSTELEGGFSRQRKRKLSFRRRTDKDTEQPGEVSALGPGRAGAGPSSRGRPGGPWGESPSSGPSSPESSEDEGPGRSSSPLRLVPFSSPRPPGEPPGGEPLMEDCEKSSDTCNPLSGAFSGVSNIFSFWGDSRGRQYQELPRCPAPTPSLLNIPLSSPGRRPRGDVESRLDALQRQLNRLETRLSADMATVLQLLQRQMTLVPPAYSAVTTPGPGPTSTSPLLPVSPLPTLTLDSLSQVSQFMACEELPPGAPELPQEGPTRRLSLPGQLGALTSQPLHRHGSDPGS

Point of comparison: `CCC(C)Sc1nc2c(c(=O)[nH]c(=O)n2C)n1CCc1ccccc1` (stereo not drawn), “hERG current change (%, negative = inhibition) at 10uM” value -17%. Against it:
- S=C(NCc1ccncc1)Nc1ccc(Br)cc1Cl — higher, -16.5%
- COc1ccc(Nc2oc(COc3ccccc3F)nc2C#N)cc1 — higher, -10.5%
- CCc1nn(C(C)C(=O)NCc2cccc(OC)c2)c(=O)c2cc3occc3n12 (stereo not drawn) — higher, -15.1%
- CCc1ccc(/C(C)=N/NC(=O)c2ccc(-n3cnnn3)cc2)cc1 — lower, -23.1%
- COC(=O)c1c(-c2c(Cl)cccc2Cl)noc1C(=O)NNC(=O)N(C)C — higher, 4.36%
- Cc1ccc(-c2nc(NCc3ccco3)c3ccccc3n2)cc1 — higher, 4.65%
- Cc1ccc(-n2c(SCC(=O)NCC3CCCO3)nc3ccccc3c2=O)cc1C (stereo not drawn) — higher, -11.5%
- COc1ccc(Cn2c(=S)[nH]c3ccccc3c2=O)cc1 — higher, 20.2%
- O=C(NCCN1CCCCC1)Nc1cccc(C(F)(F)F)c1 — lower, -49.4%
- O=C(C1CC1)N1CCc2cc(Br)cc(S(=O)(=O)NCCCN3CCCC3)c21 — higher, -9.78%
- COc1ccc(NC(=O)NCCc2ccc(Cl)cc2)cc1OC — higher, 11.3%
- O=c1cc(CCl)nc2sc3ccccc3n12 — higher, 8.04%
- CN(C)CCCN(C(=O)c1ccc(S(=O)(=O)N2CCCCCC2)cc1)c1nc2c(F)cc(F)cc2s1.Cl — lower, -69.6%
- COc1ccc(N(CC(=O)NCC2CCCO2)S(=O)(=O)c2ccccc2)cc1OC (stereo not drawn) — higher, 14%
- Cc1ccc(C(=O)NNC(=O)CCn2nnc3ccccc32)cc1 — higher, 30.2%
- Cc1cccc([C@@H]2[C@@H]3C(=O)N(Cc4ccccc4)C(=O)[C@@H]3[C@]3(C)C(=O)N(c4ccc(Br)cc4)C(=O)N23)c1 — higher, 1.53%
- N#C/C(=C\C=C\c1ccccc1)C(=O)NCc1ccco1 — higher, -3.85%
- COCCCN(Cc1ccco1)C(=O)Cn1ncc2c(=O)oc3ccc(C)cc3c21 — lower, -49.6%
- Cc1ccccc1N1CC(O)(c2ccccc2)[N+]2=C1SCC2.[Br-] (stereo not drawn) — lower, -19.5%
- C=CCN(C1CCCCC1)S(=O)(=O)c1ccc2c(c1)oc(=O)n2C — lower, -25.1%
- CCc1c(O)nc(SC2CC(=O)N(c3ccccc3)C2=O)[nH]c1=O (stereo not drawn) — higher, 12.6%
- Cc1c(C(=O)N2CCN(Cc3ccc4c(c3)OCO4)CC2)sc2ncnc(N3CCN(c4ccccc4)CC3)c12 — higher, 7.82%
- CSc1ccccc1NC(=O)CN(c1ccccc1Br)S(C)(=O)=O — higher, -2.21%
- COc1ccc2[nH]c(=O)c(CN(Cc3cccs3)Cc3nnnn3Cc3ccccc3)cc2c1 — higher, 12.5%
- O=C(Nc1ccccn1)c1ccc(Br)c(S(=O)(=O)N2CCCCC2)c1 — higher, 10.9%
- CCCCCCCC(=O)NN=C1CCN(Cc2ccccc2)CC1 — higher, 3.13%
- CCn1c2ccccc2c2cc(NC(=O)COC(=O)c3cccc(S(=O)(=O)NC)c3)ccc21 — higher, 6.89%
- N#CCCN(CCC#N)C(=S)NC1CC2C=CC1C2 (stereo not drawn) — higher, 23.3%
- CCOC(=O)c1cc(NC(=O)N(C(C)C)C2CCCCC2)c(C)nc1C — higher, -8.08%
- CC(C)(C)c1ccc(OCC(=O)NC2CCS(=O)(=O)C2)cc1 (stereo not drawn) — lower, -21.8%
- COc1ccc(N(CC(=O)N2CCCCCC2)S(=O)(=O)c2ccccc2[N+](=O)[O-])c(OC)c1 — lower, -18.2%
- CSc1ncccc1C(=O)OCC(=O)Nc1ccc2c(c1)CCC2 — higher, 9.67%
- CCc1cc2c(COC(=O)c3cccc(S(C)(=O)=O)c3)cc(=O)oc2cc1O — higher, 6.7%
- CN(CC(=O)NCc1ccncc1)S(=O)(=O)c1cc(Cl)ccc1Cl — lower, -24.2%
- COc1ccc(C2C(C#N)=C(N)N(c3ccccc3)C3=C2C(=O)CCC3)cc1Cn1cc([N+](=O)[O-])cn1 (stereo not drawn) — lower, -30.2%
- Cc1ccc(C(=O)NCc2ccc3c(c2)CCO3)cc1C — higher, -10.8%
- Cc1ccc(NC(=O)c2ccc(CSc3ccccn3)cc2)cc1 — higher, 19.3%
- FC(F)(F)c1cccc(NCc2cn3cccnc3n2)c1 — higher, -11.4%
- COc1ccccc1NC(=O)COc1ccc(Br)cc1CNCCCN1CCOCC1.Cl — lower, -58.6%
- CCOC(=O)C1CCN(C(=O)Nc2ccc(OC(F)(F)F)cc2)CC1 — lower, -38.2%
- COc1ccc(N(CC(=O)NN=C2CCN(C)CC2)S(=O)(=O)c2ccccc2)c(OC)c1 — higher, 10.9%
- CC(CCc1ccccc1)N(C)CC(O)c1cccc([N+](=O)[O-])c1.Cl (stereo not drawn) — lower, -68.6%
- Cc1ccc2sc(N(CCCN(C)C)C(=O)CN3C(=O)c4ccccc4C3=O)nc2c1C.Cl — lower, -45.2%
- Nc1nc(O)c(CC(=O)O)s1 — higher, 22.9%
- COc1ccccc1NC(=O)c1ccc(NC(=O)COC(=O)C2CCCCC2)cc1 — higher, 29.3%
- O=C(Nc1ccc2c(c1)nc1n2CCSC1)c1ccco1 — higher, 4.09%
- CCOc1ccc(NC(=O)C2CCN(S(=O)(=O)c3ccc4c(c3)N(C(C)=O)CCO4)CC2)cc1 — higher, -4.09%
- O=C(Cc1ccc(Cl)cc1)Nc1cccnc1 — higher, -2.21%
- CCn1cc(C(=O)NCCC(=O)NCCO)c(=O)c2cc3c(cc21)OCO3 — higher, 20.9%
- COc1ccccc1NC(=O)CSc1nc2ccccc2cc1Cc1ccccc1 — higher, 13.7%
- Cc1ccc2cc(COC(=O)c3cccc([N+](=O)[O-])c3)c(=O)[nH]c2c1 — higher, 3.7%
- COC(=O)c1[nH]c2cccc(OC)c2c1NC(=O)CCN1CCN(c2ccccc2OC)CC1 — lower, -26.3%
- Clc1ccc(SCCCCN2CCOCC2)cc1.O=C(O)C(=O)O — lower, -22.5%
